The assay relates to NCI-H322M lung. The assay is described as follows: NCI anticancer screen, dose series, 48 h.

This passage reports GI50 and TGI results from PubChem BioAssay (NCI).

Molecules are shown by their SMILES.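 Assay format: 96-well plates, 48-hour exposure. GI50 = concentration required for 50% inhibition of growth. TGI is the concentration that stops growth completely.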

Take `CC1=C[C@H]2O[C@@H]3C[C@H]4OC(=O)/C=C\C=C\[C@H]([C@@H](C)O)OCC/C(C)=C/C(=O)OC[C@@]2(CC1)[C@]4(C)[C@]31CO1`: the GI50 is 16.4 nM and the TGI is 97.3 nM.

In the case of `CN(C)CCN(C)c1ccc2ncc(C#Cc3cncc(C(=O)Nc4ccc(CN5CCN(C)CC5)c(C(F)(F)F)c4)c3)n2n1`, the GI50 is 3420 nM and the TGI is 9800 nM.
